Values quoted from earlier work as cited in US5234903A, “Chemically modified hemoglobin as an effective, stable non-immunogenic red blood cell substitute” (Enzon, Inc., priority 1990, dated 1993).

Conditions: no unit printed at the value

B1: U.S. Pat. No. 4,777,244: hemoglobin modified by effector substance (pyridoxal phosphate or inositol hexaphosphate), cross-linked with a dialdehyde (protein, UniProt P69905 2-142; P68871 2-147, looked up)
Hemoglobin subunit alpha: VLSPADKTNVKAAWGKVGAHAGEYGAEALERMFLSFPTTKTYFPHFDLSHGSAQVKGHGKKVADALTNAVAHVDDMPNALSALSDLHAHKLRVDPVNFKLLSHCLLVTLAAHLPAEFTPAVHASLDKFLASVSTVLTSKYR
Hemoglobin subunit beta: VHLTPEEKSAVTALWGKVNVDEVGGEALGRLLVVYPWTQRFFESFGDLSTPDAVMGNPKVKAHGKKVLGAFSDGLAHLDNLKGTFATLSELHCDKLHVDPENFRLLGNVLVCVLAHHFGKEFTPPVQAAYQKVVAGVANALAHKYH
modifications: effector-modified, dialdehyde cross-linked
  P50: 38.6
